B1: C2orf68, Q2NKX9 (protein)
chain: MEAGPHPRPGHCCKPGGRLDMNHGFVHHIRRNQIARDDYDKKVKQAAKEKVRRRHTPAPTRPRKPDLQVYLPRHRDVSAHPRNPDYEESGESSSSGGSELEPSGHQLFCLEYEADSGEVTSVIVYQGDDPGKVSEKVSAHTPLDPPMREALKLRIQEEIAKRQSQH
B2: DDX47, Q9H0S4 (protein)
chain: MAAPEEHDSPTEASQPIVEEEETKTFKDLGVTDVLCEACDQLGWTKPTKIQIEAIPLALQGRDIIGLAETGSGKTGAFALPILNALLETPQRLFALVLTPTRELAFQISEQFEALGSSIGVQSAVIVGGIDSMSQSLALAKKPHIIIATPGRLIDHLENTKGFNLRALKYLVMDEADRILNMDFETEVDKILKVIPRDRKTFLFSATMTKKVQKLQRAALKNPVKCAVSSKYQTVEKLQQYYIFIPSKFKDTYLVYILNELAGNSFMIFCSTCNNTQRTALLLRNLGFTAIPLHGQMSQSKRLGSLNKFKAKARSILLATDVASRGLDIPHVDVVVNFDIPTHSKDYIHRVGRTARAGRSGKAITFVTQYDVELFQRIEHLIGKKLPGFPTQDDEVMMLTERVAEAQRFARMELREHGEKKKRSREDAGDNDDTEGAIGVRNKVAGGKMKKRKGR
B3: ZNF488, Q96MN9 (protein)
chain: MPEWPPCLSVAPALVITMAAGKGAPLSPSAENRWRLSEPELGRGCKPVLLEKTNRLGPEAAVGRAGRDVGSAELALLVAPGKPRPGKPLPPKTRGEQRQSAFTELPRMKDRQVDAQAQEREHDDPTGQPGAPQLTQNIPRGPAGSKVFSVWPSGARSEQRSAFSKPTKRPAERPELTSVFPAGESADALGELSGLLNTTDLACWGRLSTPKLLVGDLWNLQALPQNAPLCSTFLGAPTLWLEHTQAQVPPPSSSSTTSWALLPPTLTSLGLSTQNWCAKCNLSFRLTSDLVFHMRSHHKKEHAGPDPHSQKRREEALACPVCQEHFRERHHLSRHMTSHS

The list shows a part of the results. Interaction screen of human proteins with wild-type SARS-CoV-2 proteins by split-DHFR complementation in yeast, 1 µg/mL methotrexate. Value = fitness of the pair (three or more lineages) minus that of the viral protein without a human partner, on a scale set by negative (0) and fused positive (1) controls, mean of up to three cultures; higher = more likely to interact. Active = false discovery rate below 0.05 (one-sided t-test) in at least one culture. Nearly all pairs are not hits, and differences among them are mostly noise (correlation between cultures about 0.3); most hits were seen in one culture only. Human sequences are the Swiss-Prot entries looked up by gene name; the clone may be another isoform. NSP2 values were corrected by the authors for a growth advantage. Listed are human proteins with a hit and a random twelfth of the others.

For one experiment, the target named is SARS-CoV-2 M. The experiment is described as follows: yeast fitness gain over the viral ORF with no human partner (scaled fitness); higher = more likely to interact. The procedure:
(§1)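 Split mouse DHFR complementation in pooled diploid yeast: human ORFeome clones carry one fragment and viral ORFs the other; barcoded lineages compete in 1 µg/mL methotrexate and fitness is read by barcode sequencing in up to three cultures.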
Regarding B1, the yeast fitness gain is inactive: 0.0423.

On to B2, for which the yeast fitness gain was inactive: 0.0226.

Consider B3, for which the yeast fitness gain was inactive: 0.0719.

The target of a further experiment is SARS-CoV-2 NSP10. The description is as above. The procedure: as §1
For B1, the yeast fitness gain is inactive: -0.027.

B2: the yeast fitness gain is inactive: 0.0245.

For B3, the yeast fitness gain was inactive: -0.0911.

A further experiment deals with SARS-CoV-2 NSP12. The description is as above. The procedure: as §1
B1: the yeast fitness gain was inactive: -0.0885.

For the molecule B2, the yeast fitness gain was inactive: -0.0239.

For B3, the yeast fitness gain is inactive: 0.00238.

For a further experiment, the target named is SARS-CoV-2 NSP13. The description is as above. The procedure:
as §1
In the case of B1, the yeast fitness gain is inactive: 0.0443.

As for B2, the yeast fitness gain is inactive: 0.0287.

On to B3, for which the yeast fitness gain is inactive: -0.0917.

The target in another experiment is SARS-CoV-2 NSP15. The experiment is described as above. The procedure: as §1
Consider B1, for which the yeast fitness gain is inactive: -0.0331.

On to B2, for which the yeast fitness gain is inactive: -0.0113.

The target of a further experiment is SARS-CoV-2 NSP16. The experiment is described as above. The procedure: as §1
Take B1: the yeast fitness gain was inactive: 0.155.

For the molecule B2, the yeast fitness gain is inactive: -0.0397.

The target of a further experiment is SARS-CoV-2 NSP2. The description is as above. The procedure:
as §1
As to B1, the yeast fitness gain is inactive: -0.13.

Take B2: the yeast fitness gain is inactive: -0.177.

In the case of B3, the yeast fitness gain was inactive: -0.101.

The target in the next experiment is SARS-CoV-2 NSP5. The experiment is described as above. The procedure: as §1
On to B1, for which the yeast fitness gain is inactive: 0.0493.

Consider B2, for which the yeast fitness gain is inactive: 0.0223.

As to B3, the yeast fitness gain was inactive: 0.112.

For the next experiment, the target named is SARS-CoV-2 NSP6. The description is as above. The procedure: as §1
For B1, the yeast fitness gain was inactive: 0.0354.

On to B2, for which the yeast fitness gain was inactive: 0.0549.

A further experiment has as its target SARS-CoV-2 NSP7. The description is as above. The procedure: as §1
Take B1: the yeast fitness gain is inactive: 0.0292.

Turning to B2, the yeast fitness gain was inactive: -0.024.

Consider B3, for which the yeast fitness gain is inactive: 0.00278.

Another experiment addresses SARS-CoV-2 NSP8. The experiment is described as above. The procedure:
as §1
Turning to B1, the yeast fitness gain was inactive: 0.0703.

Consider B2, for which the yeast fitness gain is inactive: 0.0855.

In the case of B3, the yeast fitness gain was inactive: -0.112.

The target of another experiment is SARS-CoV-2 ORF10. The description is as above. The procedure: as §1
In the case of B1, the yeast fitness gain was inactive: 0.079.

In the case of B2, the yeast fitness gain is inactive: -0.00262.

Turning to B3, the yeast fitness gain is inactive: 0.0262.

A further experiment has as its target SARS-CoV-2 ORF3B. The experiment is described as above. The procedure: as §1
Regarding B1, the yeast fitness gain was inactive: -0.0414.

With B2, the yeast fitness gain was inactive: 0.0328.

For the molecule B3, the yeast fitness gain was inactive: -0.0562.

The next experiment deals with SARS-CoV-2 ORF6. The description is as above. The procedure:
as §1
Take B1: the yeast fitness gain was inactive: -0.0658.

Take B2: the yeast fitness gain was inactive: 0.0343.

B3: the yeast fitness gain is inactive: 0.0526.

The target in the next experiment is SARS-CoV-2 ORF7A. Described as above. The procedure:
as §1
Consider B1, for which the yeast fitness gain is inactive: -0.0893.

As to B2, the yeast fitness gain is inactive: 0.0249.

For B3, the yeast fitness gain is inactive: 0.041.

Another experiment deals with SARS-CoV-2 ORF7B. The experiment is described as above. The procedure:
as §1
For B1, the yeast fitness gain was inactive: -0.265.

With B2, the yeast fitness gain was inactive: 0.00534.

With B3, the yeast fitness gain was inactive: -0.0107.

For another experiment, the target named is SARS-CoV-2 ORF8. Described as above. The procedure: as §1
As to B1, the yeast fitness gain is inactive: 0.0666.

Turning to B2, the yeast fitness gain was inactive: 0.0276.

Consider B3, for which the yeast fitness gain was inactive: -0.012.

The next experiment concerns the target SARS-CoV-2 ORF9B. The experiment is described as above. The procedure:
as §1
On to B1, for which the yeast fitness gain was inactive: 0.0298.

On to B2, for which the yeast fitness gain is inactive: 0.0335.

For the molecule B3, the yeast fitness gain was inactive: -0.241.

Another experiment concerns the target SARS-CoV-2 S. The description is as above. The procedure:
as §1
In the case of B1, the yeast fitness gain is inactive: 0.0545.

Regarding B2, the yeast fitness gain is inactive: 0.0579.

For B3, the yeast fitness gain was inactive: 0.0757.

Another experiment has as its target SARS-CoV-2 N. The description is as above. The procedure:
as §1
With B2, the yeast fitness gain is inactive: -0.0194.

The next experiment concerns the target SARS-CoV-2 NSP1. The description is as above. The procedure: as §1
Take B2: the yeast fitness gain was inactive: -0.0636.

B3: the yeast fitness gain was inactive: -0.121.

Another experiment has as its target SARS-CoV-2 NSP14. The description is as above. The procedure: as §1
On to B2, for which the yeast fitness gain is inactive: -0.0756.

Take B3: the yeast fitness gain is inactive: -0.2.

The next experiment concerns the target SARS-CoV-2 NSP4. The experiment is described as above. The procedure:
as §1
As to B2, the yeast fitness gain was inactive: -0.156.

The target of a further experiment is SARS-CoV-2 NSP9. The experiment is described as above. The procedure: as §1
On to B2, for which the yeast fitness gain was inactive: 0.061.

As for B3, the yeast fitness gain is inactive: 0.0325.

The target of a further experiment is SARS-CoV-2 ORF3A. The experiment is described as above. The procedure: as §1
In the case of B2, the yeast fitness gain is inactive: -0.0348.

A further experiment concerns the target SARS-CoV-2 ORF9Bwu (the 73-codon ORF). Described as above. The procedure: as §1
Take B2: the yeast fitness gain was inactive: 0.0848.

With B3, the yeast fitness gain is inactive: 0.0483.

(Values after the supplement of paper PMC11741623.)
